Some of the results follow.
System: PfAP2-HC AP2 domain (GST-tagged)
Experiment: gcPBM binding intensity (ln(normalized median fluorescence intensity)); higher = stronger DNA binding
Summary of the method: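 GST-fused DNA-binding domains of P. falciparum, expressed in E. coli, were applied at about 25 μg on average for 1 h to an Agilent 4 × 180k array of primer-extended double-stranded 36-bp intergenic genomic probes and negative controls. Binding intensity is the highest Masliner-normalised natural-log median intensity across replicate spots of either probe orientation, measured with Alexa488 anti-GST antibody and a 488 nm scan.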

| Sequence | gcPBM binding intensity (ln) |
| --- | --- |
| TTATTTGATTACTTGCGTACTTATTTCATATTTTTT [XGTACX_site6648] | 10 |
| GGGATATTTTAAAGGGTGCATATTATTAAAATAATG | 9.48 |
| ATGAGAAAACATAAAAGTACAAAAAGAAAAAAAAAA [XGTACX_site6020] | 9.65 |
| TTTATTTTATAATTCACACATATATACCTATTTTAT [CACACA_site5709] | 9.79 |
| GTGTGGTGCTCGAGGAGTACAAACAATATGTAATTT [XGTACX_site4160] | 9.62 |
| TAAACAGACATATAAACACACATATAAACAGACATA [CACACA_site7214] | 10.2 |
| TTTTCTTCCTATTATTGTACATATAGTATTCTTTCA [XGTACX_site4428] | 9.79 |
| AATATAAGTAATTATACACACTTAATATTTATATAC [CACACA_site7334] | 9.72 |
| TAATAATAAACAACCACACACAAAAAAACAAAAAAA [CACACA_site3269] | 10.3 |
| GTAGCACATATATATTGTACATAATATATACATTAT [XGTACX_site6354] | 9.79 |
| ATTTAATTATGTAAGTGTACTTTGGAATATAATATT [XGTACX_site3186] | 9.46 |
| TATATAACATAATATACACACATTATATGCGTAATT [CACACA_site6098] | 9.8 |
| ATTAAAGAAATATATACACACATTATGGGGGAATAA [CACACA_site178] | 9.93 |
| GATATATAAATAAATACACACATAAAATAGAAATAT [CACACA_site6881] | 10 |
| GTTAGGATAGATTAGACATGCACATAAATGCACTTC [TGCATGCA_site561] | 9.6 |
| TTTTTATAGAATTTAACACACATTTCATATAAAAAA [CACACA_site7453] | 9.25 |
| AATTTAAGCAGAACATATATATATATATATATAAAG [CACACA_negctrl_site769] | 9.51 |
| TATATGCTATAATATACACACATACCTATATTTATA [CACACA_site6383] | 9.94 |
| TTTAAATGCTTTTTGTGGTGACTTATCCTTTCATAA [XGTACX_negctrl_site109] | 9.56 |
| AATTATTTCTTTTACACATGCAATATTTAATTAAAA [TGCATGCA_site598] | 9.44 |
| ACATATTAAAATATATGTACATAAAATATGAAAAAA [XGTACX_site5869] | 9.89 |
| ATATTTATTCCTTTTGGTACACAAAAAAAAAAAAAA [XGTACX_site8126] | 9.29 |
| ATAGAAATATTATATTGTACGAACAGTTATTAACAA [XGTACX_site2137] | 9.51 |

| Sequence | gcPBM binding intensity (ln) |
| --- | --- |
| ATTATTTGTTTAAATTCACACACGTATATATATTTA [CACACA_site3050] | 10.1 |
| ACATGTAAATGGAAAAGTACTAATAACTTGTATTGG [XGTACX_site5181] | 9.72 |
| TTATTTTAATATAAAATACACACTACTATTATAAAT [CACACA_site1470] | 9.58 |
| TAATTATTAAAACATTGTACATTATTATAAACAATT [XGTACX_site4489] | 9.5 |
| ATATATAAATATATTACACACTTTTTCTTTTTTTTT [CACACA_site7332] | 9.68 |
| TATTACATACAATATTGTACATATCATATTTTGAAT [XGTACX_site2191] | 9.88 |
| ACGGAAAAAGAAAAGGTGCATATGGACACAATATAT | 10.2 |
| CTTATATTAATTATTACACACATATTTATAAATGCA [CACACA_site6501] | 9.73 |
| TTTTCCATAAGAATTACACACAGAAAGGATAAGTAT [CACACA_site105] | 9.83 |
| AAACAGCATGGTATACCTATAAAATATATATACTAA [GTGCAC_negctrl_site39] | 9.66 |
| ATATTTACCTTTGTATGTACATATATAAAATATATC [XGTACX_site6367] | 9.75 |
| TTTTGTAAAAAGAAAAATTAGAATATATCGTATATA [XGTACX_negctrl_site617] | 9.1 |
| GTATTTTTACAAATTTGTACATATATATGAATATAC [XGTACX_site6717] | 9.91 |
| GTATATAAATATATATATATATATATATCTATATTT [CACACA_negctrl_site871] | 9.72 |
| AAAGAAAAATTAACATGTACAAAAATTACTTGTTCA [XGTACX_site6725] | 9.58 |
| AAAAAAAATTCACACTGTACAAAAGCATAAATAAAC [XGTACX_site5408] | 9.84 |
| TCTGAAACAAGAAAAAGTACACAAATTACAAAACTA [XGTACX_site7641] | 9.58 |
| TAATAAATACAAAAATGTACACACATATATATATTT [XGTACX_site7430] | 9.85 |
| TTATTTATTTATTCATGTACGTGTATTTTTTAAAAA [XGTACX_site7915] | 9.63 |
| TATATATATATTATCACACACTCACGTTTGACAAAA [CACACA_site689] | 9.88 |
| ATTGGGTACAAATACACACACATATATATATTAAGA [CACACA_site5330] | 10.1 |
| AGTGTCATATTAACACGTACATAATTATTGTAGAGA [XGTACX_site568] | 9.71 |
| TTTGTATATTATTTTAGTACATAACATTGAAGATAT [XGTACX_site6680] | 9.45 |

| Sequence | gcPBM binding intensity (ln) |
| --- | --- |
| ATATAAGGATTAATATGTACATATATATATATATTT [XGTACX_site1390] | 9.67 |
| TATTTTGAAACTAAAAGACATAGAGAAAACAAAAAA [CACACA_negctrl_site1306] | 9.58 |
| AAATAATGTTTGAATTGTACACATATTTGTGTTTCT [XGTACX_site4603] | 9.87 |
| GTGGAACGTATATTTTCACACACTCTCAAAAGTACA [CACACA_site8722] | 9.81 |
| ATGTTGCACAGTGGAAGAATTAAAAATAAATAAATA [XGTACX_negctrl_site581] | 9.44 |
| GTGGAACATATGAACTCACACACATTTTCACTTAAA [CACACA_site3683] | 9.89 |
| AATTTTTGTATTTTTAGTACTTAATTTCAAAATAAC [XGTACX_site4234] | 9.11 |
| AATATTATAAATGTCACACATATATTCAAATATATA [CACACA_site4736] | 9.54 |
| ATGAACATATCAATTCTCAAAATAGGATGAGAGCAT [CACACA_negctrl_site230] | 9.6 |
| TTATAGAAAATGGAATAGAATGGAATGGAAGAAATA [CACACA_negctrl_site1086] | 9.69 |
| ATTATATATAAGAAGAGTACTGAATATGTGCAATAT [XGTACX_site4471] | 9.84 |
| TATATACACCCACATACACACAAATAAAAAAACACC [CACACA_site3414] | 10.5 |
| GACATTGATACCAGTAGTACCTATAGATGTTTGTTT [XGTACX_site5736] | 10 |
| TTATGGAATAATCACGTACACACAAGAAAAAAAAAA [CACACA_site526] | 9.93 |
| ATGGTACATACATACACACACACAAAAAAAAAAAAA [CACACA_site1578] | 11.3 |
| GTTCAATTTTTAGGAAGTACAAAAAAAAAAAAGAAA [XGTACX_site7286] | 9.42 |
| CAAACCTATATACAAACATGCAATCCACATATTGGT [TGCATGCA_site756] | 9.65 |
| TATATTTGTATTGTTTGTACTTATATGAATTTATAT [XGTACX_site4228] | 9.8 |
| TATATTAGTGTTGACACACACAAAAAAAAAAAAAAA [CACACA_site1396] | 9.78 |
| TAAGAAAAAAAAAAAAAAAAAAAAAAAAAAAAAAAA [CACACA_negctrl_site760] | 9 |
| TAAAAATATTTTCATTGTACATATATATAAATATAT [XGTACX_site1123] | 9.65 |
| TATAAAAAAAAAAAATATATATATATATAAATATAA [TGCATGCA_negctrl_site367] | 9.56 |
| TCACCTATTTTTAACTGTACTGAAATGATATATATA [XGTACX_site1366] | 9.5 |

| Sequence | gcPBM binding intensity (ln) |
| --- | --- |
| TAATGAAATTGTAGTAGTACCTTCTTATAAATAAAA [XGTACX_site6747] | 9.38 |
| ATTTGTTACGGACATGCATGCGAATCAGGGTATATA [TGCATGCA_site154] | 9.74 |
| TTGAGGAAATAACAGTGTACAAACAAATTATTACCA [XGTACX_site7082] | 9.82 |
| TACATATATATATATATATATATATATATCATTATG [XGTACX_negctrl_site293] | 9.95 |
| TTTGTGATATTATATTGTACCCTATATTTATTATAA [XGTACX_site4240] | 9.74 |
| GAATGGACGTTAGGGGGTACGTATAAAATTTATCAA [XGTACX_site683] | 9.83 |
| TTTATTGACAATTTATGTACATATAATTGAAAAATA [XGTACX_site6634] | 9.43 |
| CTTATATATATATCATGTACTTATGTATTTAAGAAT [XGTACX_site3307] | 9.51 |
| ACAATAAAAATTTATGCATGTGAATTGAAAAAAAAA [TGCATGCA_site1037] | 9.57 |
| AATATATACAATATATGTACATATATATACACATAT [XGTACX_site4190] | 9.87 |
| CTTTTATTAAAATTCACACACATAAACTTTTATAAA [CACACA_site7027] | 9.72 |
| ATAAAATACCTATAAACACACATATAAACAGACATA [CACACA_site7213] | 10.5 |
| AAATAAAACAAACACACACACACATACACAAAAAAA [CACACA_site3849] | 10.8 |
| GTTATTGAAAAAATAGTGCAATATAACAAAGTAAAA | 9.93 |
| TAATTTCTTATGTATTGTACAAATAATATATGATAT [XGTACX_site611] | 9.49 |
| GGAATGTAGGGTTTTACCAAAATAAAAATAACCATA [XGTACX_negctrl_site492] | 9.57 |
| TATATATATATATGTACACACATATATACCTTTCAT [CACACA_site2679] | 9.81 |
| TATATATTTCGGTGTGCACACTTTTTATTTTTATCC [CACACA_site1726] | 10.3 |
| CACTTAACACAAGAGTGTACACATATATATATATAT [XGTACX_site686] | 9.89 |
| TTTTTCTCTTTAAGGTGTACAATAATACAGTAACCA [XGTACX_site300] | 9.37 |
